Laboratory results published in patent US12583836B2 (Anaxis Pharma Pty Ltd, priority 2020, dated 2026).

Assays:
U937 cells = assay: Counter screen: cell viability without the TSQ cocktail (CelltiterGlo); parameters: species or system human; details: Homo sapiens, U-937, cell viability by CelltiterGlo, read-out: Off-target effect (IC50 cell-based assay)
Protocol: Counter screen: In parallel, all compounds were tested for their ability to affect cell viability. The same U937 cells were treated with compound in DMSO without the TSQ cocktail. This counter screen enabled evaluation of off-target effects. In this case, cell viability was measured by CelltiterGlo.

[1] = system: U937 human histiocytic leukemia cell line; assay: Inhibition of TSQ induced necroptosis, 384 well plate format (CellTitre-Glo); details: Homo sapiens, U-937; U937 cells, TSQ cocktail (TNF, Smac mimetic, Q-VD-OPh), CelltiterGlo; read-out: Inhibition of TSQ-induced necroptosis (IC50 cell-based assay)
Protocol: […] ASSAY: Screening compounds for inhibition of TSQ induced necroptosis, 384 well plate format.
Cell Line ID: U937 human histiocytic leukemia cell line.
Cell Concentration (cells/well): Final cell density is 20000 cells per well.
Cell growth medium: HT-RPMI medium+7.4% Fetal Bovine Serum (FBS). Cells are cultured in Corning 150 cm^2 tissue culture flasks with vented caps at 37° C./5% CO2.
Incubation: Plates were incubated at 37° C./5% CO2 in a humidified incubator for 48 hours following addition of compounds and death stimuli (TSQ cocktail).
Compound concentration: 36 μM starting concentration, 1:3 dilution, 10 point
DMSO final concentration (% v/v): 0.3%.
Compounds in TSQ cocktail (T: TNF; S: Smac mimetic; Q: Q-VD-OPh) and their final concentrations:
hTNF-Fc (100 ng/ml)—produced by standard procedures as shown in Bossen et al., J Biol Chem, 2006, 281(20), 13964-13971.
Compound A (500 nM)—Smac mimetic, Tetralogic and SYNthesis med chem
Q-VD-OPh (10 μM)—MP Biomedicals
The cellular assay was carried out according to the following steps: • 1. Each well was prepared by sequential addition of: • a. DMSO (control; columns 1-2 and 23-24) or compound in DMSO—addition was performed using acoustic transfer of nl volumes of stock compound to give final test concentrations of 36, 12, 4, 1.3, 0.44, 0.148, 0.049, 0.016, 0.005 and 0.002 μM. All wells were backfilled with DMSO to a final total volume in the well of 100 nl. • b. Following compound/DMSO addition in step (a), 40 μL of cell suspension (5×10^5 cells/mL) was added to provide a final cell concentration of 20,000 cells per well, and • c. Following cell addition in step (b), 10 μL of 5×TSQ cocktail (except to positive controls; columns 1 and 23) was added to each well. • 2. After 48 hours, plate was removed from the 37° C. incubator and equilibrated to room temperature for 45 minutes. • 3. 15 μL of room temperature CellTitre-Glo2™ (Promega™) was added to each well. • 4. Shook plates for 2 minutes (˜600 rpm) and incubated at room temperature for 15 minutes to allow signal to stabilise. • 5. Read luminescence readout on a plate reader. Analysis:
Percent viability was calculated for each compound according to equation (2):
[formula] • wherein • RawData is the readout of any cell containing a compound of the invention • TA is the total activity provided by the luminescence readout from DMSO only wells (columns 2 and 24)=100% viability • NSA is the non-specific activity provided by DMSO+TSQ wells (columns 1 and 23)=0% viability
Curve fitting: 10-point titration curves are fitted with the 4-parameter logistic nonlinear regression model and the IC50 reported is the inflection point of the curve.
Analysis: Data was loaded into Dotmatics™ and visualised using the Tibco® Spotfire™ software. 10 points titration curves were fitted with the 4-parameter logistic nonlinear regression model and the IC50 reported reflect the inflection point of the curve for curve fitting.
Assay involving the TSQ cocktail (T: TNF; S: Smac mimetic; Q: Q-VD-OPh): TSQ treatment ensures that cells specifically undergo necroptotic cell death. TNF activates the TNF receptor, Smac mimetic directs the signal away from proinflammatory signaling and toward the RIP1/RIP3-mediated cell death pathways, and Q-VD-OPh ensures that the apoptotic response is blocked leaving only the programmed necrosis response. The compounds' activity (solution in DMSO) tested in this TSQ-induced assay was evaluated by determining the number of viable cells in culture by measuring the amount of ATP present as measured by CelltiterGlo.

COCC(Oc1cc(-c2n[nH]c(Nc3cc(C)on3)c2C(N)=O)ccc1NS(=O)(=O)C(F)F)c1ccc(F)cc1 (racemic) [Compound 298, 3-(4-((difluoromethyl)sulfonamido)-3-(1-(4-fluorophenyl)-2-methoxyethoxy)phenyl)-5-((5-methylisoxazol-3-yl)amino)-1H-pyrazole-4-carboxamide]
pIC50 (U937 cells): < 4.52

C[C@H](Oc1cc(-c2n[nH]c(Nc3cnccn3)c2C(N)=O)ccc1NS(=O)(=O)C(F)F)c1ncco1 (single isomer, unassigned) [Compound 279]
pIC50 [1]: 6.00 to 8.00
pIC50 (U937 cells): < 4.52

COC[C@H](Oc1cc(-c2n[nH]c(Nc3cc(C)on3)c2C(N)=O)ccc1NS(=O)(=O)C(F)F)c1ccc(F)cc1 (single isomer, unassigned) [Compound 299]
pIC50 [1]: > 8.00
pIC50 (U937 cells): < 4.52

CCS(=O)(=O)Nc1ccc(-c2n[nH]c(Nc3cnccn3)c2C(N)=O)cc1OCCc1ccc(F)cc1 [Compound 24]
pIC50 [1]: 4.52 to 6.00
pIC50 (U937 cells): < 4.52

CCS(=O)(=O)Nc1ccc(-c2n[nH]c(Nc3ccccn3)c2C(N)=O)cc1OCc1ccc(Cl)cc1 [Compound 39, 3-(3-((4-chlorobenzyl)oxy)-4-(ethylsulfonamido)phenyl)-5-(pyridin-2-ylamino)-1H-pyrazole-4-carboxamide]
pIC50 [1]: 4.52 to 6.00
pIC50 (U937 cells): < 4.52

CCS(=O)(=O)Nc1ccc(-c2n[nH]c(Nc3cnccn3)c2C(N)=O)cc1OCc1ccc(F)cc1 [Compound 62, 3-(4-(ethylsulfonamido)-3-((4-fluorobenzyl)oxy)phenyl) 5-(pyrazin-2-ylamino)-1H pyrazole-4-carboxamide]
pIC50 [1]: 6.00 to 8.00
pIC50 (U937 cells): < 4.52

NC(=O)c1c(-c2ccc(NS(=O)(=O)C3CC3)cc2)n[nH]c1Nc1cnccn1 [Compound 68, 3-(4-(cyclopropanesulfonamido)phenyl)-5-(pyrazin-2-ylamino)-1H-pyrazole-4-carboxamide]
pIC50 [1]: 4.52 to 6.00
pIC50 (U937 cells): < 4.52

CCS(=O)(=O)Nc1ccc(-c2n[nH]c(Nc3ccc(OC)cn3)c2C(N)=O)cc1 [Compound 88, 3-(4-(ethylsulfonamido)phenyl)-5-((5-methoxypyridin-2-yl)amino)-1H-pyrazole-4-carboxamide]
pIC50 [1]: 4.52 to 6.00
pIC50 (U937 cells): < 4.52

CCS(=O)(=O)Nc1ccc(-c2n[nH]c(Nc3cccc(C(F)F)n3)c2C(N)=O)cc1 [Compound 92, 5-((6-(difluoromethyl)pyridin-2-yl)amino)-3-(4-(ethylsulfonamido)phenyl)-1H-pyrazole-4-carboxamide]
pIC50 [1]: 4.52 to 6.00
pIC50 (U937 cells): < 4.52

C[C@H](Oc1cc(-c2n[nH]c(Nc3ccccn3)c2C(N)=O)ccc1NS(=O)(=O)CC(F)(F)F)c1ccc(F)cc1 [Compound 154, (S)-3-(3-(1-(4-fluorophenyl)ethoxy)-4-((2,2,2-trifluoroethyl)sulfonamido)phenyl)-5-(pyridine-2-ylamino)-1H-pyrazole-4-carboxamide]
pIC50 [1]: 6.00 to 8.00
pIC50 (U937 cells): 4.52 to 6.00

Cc1cnc(Nc2[nH]nc(-c3ccc(NS(=O)(=O)CC(F)(F)F)c(OCc4ccc(F)c(Cl)c4)c3)c2C(N)=O)cn1 [Compound 155, 3-(3-((3-chloro-4-fluorobenzyl)oxy)-4-((2,2,2-trifluoroethyl)sulfonamido)phenyl)-5-((5-methylpyrazin-2-yl)amino)-1H-pyrazole-4-carboxamide]
pIC50 [1]: 6.00 to 8.00
pIC50 (U937 cells): 4.52 to 6.00

CCS(=O)(=O)Nc1ccc(-c2n[nH]c(Nc3cnccn3)c2C(N)=O)cc1OCc1ccc(F)cn1 [Compound 156, 3-(4-(ethylsulfonamido)-3-((5-fluoropyridin-2-yl)methoxy)phenyl)-5-(pyrazin-2-ylamino)-1H-pyrazole-4-carboxamide]
pIC50 [1]: 4.52 to 6.00
pIC50 (U937 cells): < 4.52

COc1cnc(Nc2[nH]nc(-c3ccc(NS(=O)(=O)CC(F)(F)F)c(OCc4ccc(Cl)cc4)c3)c2C(N)=O)cn1 [Compound 157, 3-(3-((4-chlorobenzyl)oxy)-4-((2,2,2-trifluoroethyl)sulfonamido)phenyl)-5-((5-methoxypyrazin-2-yl)amino)-1H-pyrazole-4-carboxamide]
pIC50 [1]: 6.00 to 8.00
pIC50 (U937 cells): < 4.52

CCS(=O)(=O)Nc1ccc(-c2n[nH]c(Nc3cnc(C4CC4)cn3)c2C(N)=O)cc1 [Compound 158, 5-((5-cyclopropylpyrazin-2-yl)amino)-3-(4-(ethylsulfonamido)phenyl)-1H-pyrazole-4-carboxamide]
pIC50 [1]: 4.52 to 6.00
pIC50 (U937 cells): < 4.52

NC(=O)c1c(-c2ccc(NS(=O)(=O)CC(F)(F)F)c(OCc3ccc(F)c(F)c3)c2)n[nH]c1Nc1ccccn1 [Compound 160, 3-(3-((3,4-difluorobenzyl)oxy)-4-((2,2,2-trifluoroethyl)sulfonamido)phenyl)-5-(pyridine-2-ylamino)-1H-pyrazole-4-carboxamide]
pIC50 [1]: 4.52 to 6.00
pIC50 (U937 cells): < 4.52

NC(=O)c1c(-c2ccc(NS(=O)(=O)CC(F)(F)F)c(OCc3ccc(Cl)c(F)c3)c2)n[nH]c1Nc1cnccn1 [Compound 165, 3-(3-((4-chloro-3-fluorobenzyl)oxy)-4-((2,2,2-trifluoroethyl)sulfonamido)phenyl)-5-(pyrazin-2-ylamino)-1H-pyrazole-4-carboxamide]
pIC50 [1]: > 8.00
pIC50 (U937 cells): < 4.52

NC(=O)c1c(-c2ccc(NS(=O)(=O)CC(F)(F)F)c(OCc3ccc(F)c(F)c3)c2)n[nH]c1Nc1cnccn1 [Compound 175, 3-(3-((3,4-difluorobenzyl)oxy)-4-((2,2,2-trifluoroethyl)sulfonamido)phenyl)-5-(pyrazin-2-ylamino)-1H-pyrazole-4-carboxamide]
pIC50 [1]: > 8.00
pIC50 (U937 cells): < 4.52

CCS(=O)(=O)Nc1ccc(-c2n[nH]c(Nc3cnc(C(C)(C)C)cn3)c2C(N)=O)cc1 [Compound 181, 5-((5-(tert-butyl)pyrazin-2-yl)amino)-3-(4-(ethylsulfonamido)phenyl)-1H-pyrazole-4-carboxamide]
pIC50 [1]: 4.52 to 6.00
pIC50 (U937 cells): < 4.52

NC(=O)c1c(-c2ccc(NS(=O)(=O)C(F)F)c(OCc3ccc(F)cc3)c2)n[nH]c1Nc1ccc(C(F)(F)F)nc1 [Compound 188, 3-(4-((difluoromethyl)sulfonamido)-3-((4-fluorobenzyl)oxy)phenyl)-5-((6-(trifluoromethyl)pyridine-3-yl)amino)-1H-pyrazole-4-carboxamide]
pIC50 [1]: 6.00 to 8.00
pIC50 (U937 cells): < 4.52

COc1cnc(Nc2[nH]nc(-c3ccc(NS(=O)(=O)C(F)F)c(OCc4ccc(Cl)cc4)c3)c2C(N)=O)cn1 [Compound 190, 3-(3-((4-chlorobenzyl)oxy)-4-((difluoromethyl)sulfonamido)phenyl)-5-((5-methoxypyrazin-2-yl)amino)-1H-pyrazole-4-carboxamide]
pIC50 [1]: 6.00 to 8.00
pIC50 (U937 cells): < 4.52

COc1cnc(Nc2[nH]nc(-c3ccc(NS(=O)(=O)C(F)F)c(OCc4ccc(F)cc4)c3)c2C(N)=O)cn1 [Compound 191, 3-(4-((difluoromethyl)sulfonamido)-3-((4-fluorobenzyl)oxy)phenyl)-5-((5-methoxypyrazin-2-yl)amino)-1H-pyrazole-4-carboxamide]
pIC50 [1]: 6.00 to 8.00
pIC50 (U937 cells): < 4.52

CCS(=O)(=O)Nc1ccc(-c2n[nH]c(Nc3ccc(C(F)(F)F)nc3)c2C(N)=O)cc1OCc1ccc(F)cc1 [Compound 194]
pIC50 [1]: 6.00 to 8.00
pIC50 (U937 cells): 4.52 to 6.00

COc1ccc(Nc2[nH]nc(-c3ccc(NS(=O)(=O)C(F)F)c(OCc4ccc(F)cc4)c3)c2C(N)=O)cn1 [Compound 196, 3-(4-((difluoromethyl)sulfonamido)-3-((4-fluorobenzyl)oxy)phenyl)-5-((6-methoxypyridin-3-yl)amino)-1H-pyrazole-4-carboxamide]
pIC50 [1]: 6.00 to 8.00
pIC50 (U937 cells): < 4.52

pIC50: −log10 of the molar value.
